Laboratory results published in the supplement of paper PMC4604168 (melanoma cell lines).
Some of the results follow. Repeats are few or missing, and single values can be far off.

Columns and labels:
Assay in all cases: cell count relative to DMSO control; melanoma cells; higher = more viable cells
Conditions in all cases: library dose: low library concentration; 72 h; first compound 0.4 µM
MZ2-MEL = test system: MZ2-MEL
MeWo = test system: MeWo
RPMI7951 = test system: RPMI7951
RVH-421 = test system: RVH-421
SkMel28 = test system: SkMel28
SkMel2 = test system: SkMel2
SkMel30 = test system: SkMel30
SkMel5 = test system: SkMel5
UACC257 = test system: UACC257
UACC62 = test system: UACC62
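Also: cell number obtained by counting DAPI-stained nuclei in high-throughput microscope images with image analysis software, screen run in 1,536-well plates.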

Compound	cell count (MZ2-MEL)	cell count (MeWo)	cell count (RPMI7951)	cell count (RVH-421)	cell count (SkMel28)	cell count (SkMel2)	cell count (SkMel30)	cell count (SkMel5)	cell count (UACC257)	cell count (UACC62)
C[C@@H](N)c1ccc(C(=O)Nc2ccnc3[nH]ccc23)cc1 + O=S(=O)(c1ccccc1)N(CC(F)(F)F)c1ccc(C(O)(C(F)(F)F)C(F)(F)F)cc1 [T0901317] (partner dose 1.4 µM)	76.6%	95.5%	79.2%	40.3%	62.7%	91.1%	77.8%	67.9%	97%	68.4%
CCCCCCCCCCCCCCCCCCOP(=O)([O-])OC1CC[N+](C)(C)CC1 [Perifosine] + CC(C)CCN1c2nc(Nc3cc(F)c(O)c(F)c3)ncc2N(C)C(=O)C1C [BID1870] (partner dose 0.2 µM)	104%	88.6%	93.2%	96.4%	95.2%	103%	84.5%	100%	98.6%	81%
C[C@@H](N)c1ccc(C(=O)Nc2ccnc3[nH]ccc23)cc1 + N#Cc1c(O)c2c(-c3ccc(-c4ccccc4O)cc3)csc2[nH]c1=O [A769662] (partner dose 2 µM)	69.5%	79%	76.1%	85.2%	60.3%	100%	129%	71.2%	59.4%	77.2%
C[C@@H](N)c1ccc(C(=O)Nc2ccnc3[nH]ccc23)cc1 + NCC(=O)Nc1ccc(-n2nc(C(F)(F)F)cc2-c2ccc3c(ccc4ccccc43)c2)cc1 [OSU03012] (partner dose 1 µM)	76.3%	47.4%	86.7%	60.5%	63.9%	70.8%	49.9%	85.3%	72.8%	89%
C[C@@H](N)c1ccc(C(=O)Nc2ccnc3[nH]ccc23)cc1 + CC1(C)NC(=O)N(c2ccc([N+](=O)[O-])c(C(F)(F)F)c2)C1=O [nilutamide] (partner dose 1 µM)	95.4%	77.6%	84.1%	70.8%	70.4%	110%	120%	81.2%	86.8%	93.9%
Cn1sc(=O)n(Cc2ccccc2)c1=O + O=S(=O)(c1ccccc1)N(CC(F)(F)F)c1ccc(C(O)(C(F)(F)F)C(F)(F)F)cc1 [T0901317] (partner dose 1.4 µM)	101%	87.6%	98.2%	95.7%	95.4%	98.7%	93.7%	84.1%	84.6%	77.6%
CCCCCCCCCCCCCCCCCCOP(=O)([O-])OC1CC[N+](C)(C)CC1 [Perifosine] + CC(C)(C)c1cnc(CSc2cnc(NC(=O)C3CCNCC3)s2)o1 [SNS-032] (partner dose 0.01 µM)	101%	97.1%	28.2%	119%	76.5%	93.8%	55.8%	96.1%	110%	87.1%
Cn1sc(=O)n(Cc2ccccc2)c1=O + Oc1cc(-c2nc(-c3ccccc3)[nH]c2-c2ccncc2)ccc1Cl [L779450] (partner dose 0.2 µM)	80.4%	101%	90.2%	82.8%	83.1%	95.7%	89.9%	111%	86%	58.4%
Cn1sc(=O)n(Cc2ccccc2)c1=O + CN(C)S(=O)(=O)c1ccc2c(c1)/C(=C/c1cc3c([nH]1)CCCC3)C(=O)N2 [SU6656] (partner dose 0.4 µM)	97.9%	92.9%	85.7%	100%	85%	103%	88%	97.6%	91.3%	85%
CCCCCCCCCCCCCCCCCCOP(=O)([O-])OC1CC[N+](C)(C)CC1 [Perifosine] + COc1cc2c(Oc3ccc4[nH]c(C)cc4c3F)ncnc2cc1OCCCN1CCCC1 [cediranib] (partner dose 0.4 µM)	109%	105%	60.8%	118%	86.2%	105%	99.2%	97.2%	93.6%	99.2%
Cn1sc(=O)n(Cc2ccccc2)c1=O + CC(C)CCN1c2nc(Nc3cc(F)c(O)c(F)c3)ncc2N(C)C(=O)C1C [BID1870] (partner dose 0.2 µM)	97.1%	88.6%	81%	104%	91.2%	88.3%	94.2%	100%	84.5%	87.6%
C[C@@H](N)c1ccc(C(=O)Nc2ccnc3[nH]ccc23)cc1 + O=c1cc(-c2cccc3c2Sc2ccccc2S3)oc(N2CCOCC2)c1 [KU55933] (partner dose 1 µM)	73.4%	80.1%	76.3%	103%	96.7%	123%	121%	90.1%	85.2%	97.3%
Cn1sc(=O)n(Cc2ccccc2)c1=O + NC(=O)Nc1cc(-c2cccc(F)c2)sc1C(=O)N[C@H]1CCCNC1 [AZD7762] (partner dose 0.02 µM)	114%	98.7%	112%	109%	122%	114%	86.5%	103%	108%	96.5%
CCCCCCCCCCCCCCCCCCOP(=O)([O-])OC1CC[N+](C)(C)CC1 [Perifosine] + COc1ccc(COc2ccc(Cc3cnc(N)nc3N)cc2OC)cc1 [GW2580] (partner dose 1 µM)	107%	95.6%	104%	108%	113%	102%	116%	110%	88.5%	122%
C[C@@H](N)c1ccc(C(=O)Nc2ccnc3[nH]ccc23)cc1 + O=C(O)C(=O)Nc1sc2c(c1C(=O)O)CCNC2 [TCS401] (partner dose 1.66667 µM)	79.8%	75.8%	89.3%	111%	61.4%	100%	116%	91.6%	54.7%	85.2%
CCCCCCCCCCCCCCCCCCOP(=O)([O-])OC1CC[N+](C)(C)CC1 [Perifosine] + COc1cc(N2CCC(N3CCN(C)CC3)CC2)ccc1Nc1ncc(Cl)c(Nc2ccccc2S(=O)(=O)C(C)C)n1 [NVP-TAE684] (partner dose 0.08 µM)	101%	76.9%	38.8%	121%	79.2%	83.6%	65%	76.1%	64.4%	69.4%
Cn1sc(=O)n(Cc2ccccc2)c1=O + CO[C@@H]1[C@H](N(C)C(=O)c2ccccc2)C[C@H]2O[C@]1(C)n1c3ccccc3c3c4c(c5c6ccccc6n2c5c31)C(=O)NC4 [Midostaurin] (partner dose 0.08 µM)	104%	90.3%	87.5%	122%	109%	84%	103%	87.5%	84.1%	90.9%
Cn1sc(=O)n(Cc2ccccc2)c1=O + CCc1ccc(CCOc2ccc(CC3SC(=O)NC3=O)cc2)nc1 [pioglitazone] (partner dose 2 µM)	107%	93.5%	89.8%	88.7%	86.2%	106%	92%	98.7%	99.7%	106%
C[C@@H](N)c1ccc(C(=O)Nc2ccnc3[nH]ccc23)cc1 + Oc1cc(-c2nc(-c3ccccc3)[nH]c2-c2ccncc2)ccc1Cl [L779450] (partner dose 0.2 µM)	54.8%	87.8%	81.8%	65.1%	62.3%	97.2%	98.6%	89.2%	73.8%	59.7%
C[C@@H](N)c1ccc(C(=O)Nc2ccnc3[nH]ccc23)cc1 + CO[C@@H]1[C@H](N(C)C(=O)c2ccccc2)C[C@H]2O[C@]1(C)n1c3ccccc3c3c4c(c5c6ccccc6n2c5c31)C(=O)NC4 [Midostaurin] (partner dose 0.08 µM)	90.1%	71.9%	78.5%	63.9%	71.9%	97.8%	118%	83.8%	54.8%	84.4%
C[C@@H](N)c1ccc(C(=O)Nc2ccnc3[nH]ccc23)cc1 + Cc1cc(N2CCOCC2)cc2[nH]c(-c3c(NC[C@@H](O)c4cccc(Cl)c4)cc[nH]c3=O)nc12 [BMS536924] (partner dose 0.2 µM)	85.8%	81.9%	78.8%	72.4%	77%	93.8%	105%	72.8%	60.7%	78%
C[C@@H](N)c1ccc(C(=O)Nc2ccnc3[nH]ccc23)cc1 + COc1ccc(COc2ccc(Cc3cnc(N)nc3N)cc2OC)cc1 [GW2580] (partner dose 1 µM)	70.5%	72%	81.2%	71.5%	86.8%	92.3%	92.1%	80.4%	86.4%	79.3%
C[C@@H](N)c1ccc(C(=O)Nc2ccnc3[nH]ccc23)cc1 + C=CCn1c(=O)c2cnc(Nc3ccc(N4CCN(C)CC4)cc3)nc2n1-c1cccc(C(C)(C)O)n1 [MK1775] (partner dose 0.02 µM)	85.4%	86%	82.6%	68.6%	66.3%	97%	121%	97.3%	61.2%	67.2%
C[C@@H](N)c1ccc(C(=O)Nc2ccnc3[nH]ccc23)cc1 + NC(=O)Nc1cc(-c2cccc(F)c2)sc1C(=O)N[C@H]1CCCNC1 [AZD7762] (partner dose 0.02 µM)	87.7%	85.1%	77.5%	73.1%	63%	111%	155%	81.3%	67.2%	78.3%
C[C@@H](N)c1ccc(C(=O)Nc2ccnc3[nH]ccc23)cc1 + Cn1cncc1[C@@](N)(c1ccc(Cl)cc1)c1ccc2c(c1)c(-c1cccc(Cl)c1)cc(=O)n2C [tipifarnib] (partner dose 0.01 µM)	91.7%	80.7%	74.9%	60%	81.7%	87.5%	98.9%	91.5%	68.1%	76%
Cn1sc(=O)n(Cc2ccccc2)c1=O + COc1ccc2c(c1)CCC1C2CCC2(C)C(NCCCCCCN3C(=O)C=CC3=O)CCC12 [U73122] (partner dose 0.4 µM)	96.2%	93.6%	89.5%	64%	97.8%	97.8%	79.8%	100%	91.7%	94.3%
